# The full ranking holds about 81,000 sequences; the median of “one-hybrid fitness for binding parS DNA” is about -0.17, and the highest 2% start at about 0.51. The list shows a part of the results.
# B1: Caulobacter ParB omega fusion; a variant is named by its letters at X, in order, B8GW30 (parent)
# chain: MESVVVGEPGMSEGRRGLGRGLSALLGEVDAAPAQAPGEQLGGSREAPIEILQRNPDQPRRTFREEDLEDLSNSIREKGVLQPILVRPSPDTAGEYQIVAGERAWRAAQRAGLKTVPIMVRELDDLAVLEIGIIENVQRADLNVLEEALSYKVLMEKFERTQENIAQTIGKSXSHVANXMRLLXLPDEVQSYLVSGELTAXHARAIAAAADPVALAKQIIEGGLSVRETEALARKAPNLSAGKSKGGRPPRVKDTDTQALESDLSSVLGLDVSIDHRGSTGTLTITYATLEQLDDLCNRLTRGI
# Variants of: B1
# Assay: one-hybrid fitness for binding parS DNA (scaled: cognate 1, non-cognate 0); higher = stronger binding
# Conditions: with parS DNA site
# Method in brief: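 Selection: bacterial one-hybrid in E. coli USO, HIS3 reporter with the site 19 bp from the promoter, 48 hours at 37°C on M9-minus-histidine plus 0.1 mM IPTG and 5 mM 3-AT. Libraries were Caulobacter ParB with four randomised specificity codons, sequenced on Illumina before and after selection. Fitness is the rescaled log change in variant-to-wild-type read ratio, anchored to the cognate and non-cognate sites.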
row,Variant,one-hybrid fitness for binding parS DNA
1,PLWV,≤ 0.2
2,HKLT,≤ 0.2
3,MNHS,≤ 0.2
4,SGKC,≤ 0.2
5,NYAR,≤ 0.2
6,MSHI,≤ 0.2
7,WCDT,≤ 0.2
8,VNGN,≤ 0.2
9,AKHR,≤ 0.2
10,ILPG,≤ 0.2
11,QCQH,≤ 0.2
12,NDTS,≤ 0.2
13,KCAG,≤ 0.2
14,NYIR,≤ 0.2
15,DELR,≤ 0.2
16,AAIV,≤ 0.2
17,YTSW,≤ 0.2
18,GHRV,≤ 0.2
19,QVQG,≤ 0.2
20,QRSC,≤ 0.2
21,IDTL,≤ 0.2

row,Variant,one-hybrid fitness for binding parS DNA
1,ILVR,≤ 0.2
2,SVMC,≤ 0.2
3,SRNG,≤ 0.2
4,HQEA,≤ 0.2
5,IQFM,≤ 0.2
6,IPIS,≤ 0.2
7,DQKR,≤ 0.2
8,WVHR,≤ 0.2
9,WTCR,≤ 0.2
10,PAEG,≤ 0.2
11,CSRT,≤ 0.2
12,PLHK,≤ 0.2
13,RYSC,0.929
14,ATLC,≤ 0.2
15,PGFV,≤ 0.2
16,KMPL,≤ 0.2
17,CYAV,≤ 0.2
18,TCKH,≤ 0.2
19,FLPQ,≤ 0.2
20,DEFG,≤ 0.2
21,LPVN,≤ 0.2

row,Variant,one-hybrid fitness for binding parS DNA
1,RTMT,0.935
2,AANR,≤ 0.2
3,ITAR,≤ 0.2
4,FRHV,≤ 0.2
5,DEYC,≤ 0.2
6,KLWS,≤ 0.2
7,LCSS,≤ 0.2
8,RNQQ,≤ 0.2
9,WKRS,≤ 0.2
10,VNIT,≤ 0.2
11,TLSH,≤ 0.2
12,FVEL,≤ 0.2
13,SKSW,≤ 0.2
14,PEMS,≤ 0.2
15,VRDV,≤ 0.2
16,CTRC,≤ 0.2
17,LDLT,≤ 0.2
18,TENY,≤ 0.2
19,SQPE,≤ 0.2
20,HKKI,≤ 0.2
21,AMDE,≤ 0.2

row,Variant,one-hybrid fitness for binding parS DNA
1,QNPF,≤ 0.2
2,QESQ,≤ 0.2
3,SNSI,≤ 0.2
4,KNQV,≤ 0.2
5,KKNM,≤ 0.2
6,SAPT,≤ 0.2
7,EDKI,≤ 0.2
8,SARY,≤ 0.2
9,ECHT,≤ 0.2
10,TLVI,≤ 0.2
11,PIGH,≤ 0.2
12,EAGC,≤ 0.2
13,APHP,≤ 0.2
14,GMVQ,≤ 0.2
15,SFLL,≤ 0.2
16,EYCS,≤ 0.2
17,GDHR,≤ 0.2
18,FDEV,≤ 0.2
19,IQLA,≤ 0.2
20,LLWR,≤ 0.2
21,PRSS,≤ 0.2

# Reference: a collection of fitness landscapes (doi:10.1016/j.celrep.2020.107928)
